Experimental data reported in PubChem BioAssay (NCI).
Several values for one entry are separate records, joined by “and”; a condition that tells them apart may be missing. Equal entries are not always repeated.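 A five-concentration, 48-hour dose response in 96-well plates underlies each endpoint, interpolated linearly between surrounding concentrations. The concentration for 50% growth inhibition is given as GI50. TGI marks complete inhibition of growth.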

System: NCI-H322M lung
Experiment: NCI-60 cell line screen, 48 h

SMILES | TGI | GI50
CC(=O)OC1COC(Nc2nc(NCc3ccccc3)n(C)c(=O)c2N=O)C(OC(C)=O)C1OC(C)=O (stereo unspecified) | > 10 µM | 
Cc1ccc2nc(-c3ccc(N4C(=O)C(Cl)C4c4ccc(Cl)cc4)cc3)sc2c1 (stereo unspecified) | > 100 µM | 
Clc1ccc(C(SCc2ccccc2)SCc2ccccc2)cc1 | > 10 µM | 
CN(C)c1nc(=Nc2cccc(Cl)c2)ss1 | > 100 µM | 
CC1=NN(c2nc(N)nc(CC#N)n2)C(C)(C)C1 | > 100 µM | 
Cc1ccc2oc(=O)c(C(=O)Nc3nc(C45CC6CC(CC(C6)C4)C5)cs3)cc2c1 | > 100 µM | 
Nc1nn2c(nc(N)c3c(N)[nH]nc32)c1N=Nc1ccc(Br)cc1 | > 95.5 µM | 
O=Cc1ccc(-c2ccc(-c3nc4ccccc4o3)cc2)o1 | > 100 µM | > 100 µM
COC1=CC(=O)C2C(C1=O)C(c1ccccc1)[C@H]2C (stereo partly specified) | > 100 µM | 
COC(=O)Cc1ccc(Oc2cnc3cc(F)c(F)cc3n2)cc1 | > 100 µM | > 100 µM
Cc1sc2c(c1C)C(c1ccc(Cl)cc1)=N[C@@H](CC(=O)OC(C)(C)C)c1nnc(C)n1-2 | 41 µM and 19 µM | 0.82 µM and 0.296 µM
CCCC(CCC)C(=O)OCC1(CO)C/C(=C\c2ccc(F)cc2)C(=O)O1 (stereo unspecified) | 27.7 µM | 13.1 µM
CCCN(CCCC(NC(C)=O)C(=O)NCc1ccccc1)C(=O)NCCCl (stereo unspecified) | > 100 µM | 
CCCCCCCCCCCCCCCCOC[C@@H](COC(c1ccccc1)(c1ccccc1)c1ccccc1)O[P+](=S)OC (stereo partly specified) | 17.7 µM | 
COc1ccc(OC)c2c1[nH]c(=O)c1c3ncccc3cn21 | > 100 µM | 4.35 µM
CCOC(=N)/C(=C1\OC(N)=C(c2ccc(Cl)cc2)C1=O)c1ccc(Cl)cc1 | 43.3 µM | 
COc1cc(CNC2c3cc4c(cc3C(c3cc(OC)c(OC)c(OC)c3)[C@H]3C(=O)OCC23)OCO4)cc(OC)c1OC (stereo partly specified) | > 100 µM | 

SMILES | TGI | GI50
C=C(OC1C(C)=C2C(C1OC(=O)CCCCCCC)C(C)(OC(C)=O)CC(OC(=O)CCC)C1(O)C2OC(=O)C1(C)O)/C(C)=C/C (stereo unspecified) | 10.2 µM | < 0.0001 µM
COc1ccc(N2C(=O)C3c4[nH]c5ccc(F)cc5c4C4CCC(c5ccccc5)CC4C3C2=O)cc1 (stereo unspecified) | > 100 µM | 
CC(C)C(/C=C/c1ccc(Cl)c(Cl)c1)=N\NC(=O)N/N=C(/C=C/c1ccc(Cl)c(Cl)c1)C(C)C | > 100 µM | 
O=C(O)/C(Cc1ccc([N+](=O)[O-])cc1)=N\O | > 100 µM | 
CC/C(CC(=O)CCC(=O)Nc1ccccc1[N+](=O)[O-])=N/NC(=O)C[n+]1ccccc1 | > 100 µM | 
COc1ccc(-c2c3c(n(C4OC(COC(C)=O)C(OC(C)=O)C(OC(C)=O)C4OC(C)=O)c(=S)c2C#N)CC(C)(C)CC3=O)cc1 (stereo unspecified) | > 100 µM | 
COc1c(O)cc2c(c1O)C(=O)/C(=C/c1ccc(O)cc1)CO2 | 70.1 µM | 
CCNC(=O)c1c(O)c2ccccc2[nH]c1=O | > 100 µM | 
NC(=O)c1cccc(Nc2nccc(Nc3cccc4[nH]ncc34)n2)c1 | > 25 µM | 9.77 µM
CC(C)(C)C1CCC2c3c([nH]c4ccccc34)C3C(=O)N(c4ccccc4)C(=O)C3C2C1 (stereo unspecified) | > 100 µM | 
Cc1c(C(=O)/C=C/c2ccc(N(C)C)cc2)c(=O)n(-c2ccccc2)n1C | > 100 µM | 
O=C1C=CC(=O)c2cc(Sc3ccccc3)c(=O)ccc21 | 22.8 µM | 
O=C1C(Cl)C(c2ccccc2O)N1n1cnc2ccccc2c1=O (stereo unspecified) | > 100 µM | 
CCCCCCCCCCC1OC([C@@H](O)CC[C@H](O)C2CC[C@@H](CCCCCCCC(O)CC3=CC(C)OC3=O)O2)CCC1O (stereo partly specified) | > 25 µM | 
CCOC(=O)C(NC(=O)c1ccccc1)(N1CCOCC1)C(F)(F)F (stereo unspecified) | > 100 µM | 
CC(=O)N=C1N(/C=C2\C(=O)Oc3ccccc3C2=O)C(=O)/C(=C/c2ccc(Cl)cc2Cl)N1C | > 100 µM | 
CC(C)(C)C(=O)OC12/C(=N/O)CCCCCC1c1ccccc12 (stereo unspecified) | 30.1 µM | 
